According to US7629351B2, “N-((1R,2S,5R)-5-(tert-butylamino)-2-((S)-2-oxo-3-(6-(trifluoromethyl)quinazolin-4-ylamino) pyrrolidin-1-yl)cyclohexyl)acetamide and other modulators of chemokine receptor activity, crystalline forms and process” (Bristol-Myers Squibb Company, priority 2006, dated 2009):

Tests used:
hERG = hERG (Homo sapiens, UniProt Q12809); assay: hERG patch clamp (HEK-293 cells); settings: pH 7.4
[1] = test system: mononuclear cell recruitment to the skin; assay: Intradermal MCP-1 challenge model in cynomolgus monkey; format: in vivo; settings: for Mononuclear cell score: MCP-1 sites
Procedure: Intradermal injection of MCP-1 results in the infiltration of mononuclear cells to the injection site. This model was initially developed to assess the inhibitory effect of CCR2 antagonists on the infiltration of mononuclear cells to the skin tissue injected with human MCP-1. The cellular infiltrate can be measured semi-quantitatively by histological scoring.
Immediately after dosing on Day 3, all animals received 2 intradermal injections of 10 μg (50 μL/injection ) of human MCP-1 (R & D Systems) and 2 intradermal injections of its DPBS control (50 μl/injection) at separate sites on the dorsal thorax. Dermal biopsies of all sites were obtained at approximately 18 hours following MCP-1 (or DPBS) challenge. Biopsies were processed for semi-quantitative histological evaluation. Representative sections of skin samples were examined by light microscopy; microscopic lesions and cellular infiltration were noted and their incidences were tabulated.
In addition to biopsy analysis, blood was collected and evaluated for complete blood counts and cell differentials. Also evaluated were plasma samples for compound (and metabolite) concentrations, and serum samples for systemic MCP-1 levels.

[2] = biological target: human cardiac sodium channel, SCN5A (Homo sapiens, UniProt Q14524); assay: Sodium channel patch clamp (HEK-293 cells); format: cell-based; settings: 30,000 nM, read-out: Na+ channel patch clamp (% Inhib.)
UniProt Q14524, sequence (Q14524 whole entry): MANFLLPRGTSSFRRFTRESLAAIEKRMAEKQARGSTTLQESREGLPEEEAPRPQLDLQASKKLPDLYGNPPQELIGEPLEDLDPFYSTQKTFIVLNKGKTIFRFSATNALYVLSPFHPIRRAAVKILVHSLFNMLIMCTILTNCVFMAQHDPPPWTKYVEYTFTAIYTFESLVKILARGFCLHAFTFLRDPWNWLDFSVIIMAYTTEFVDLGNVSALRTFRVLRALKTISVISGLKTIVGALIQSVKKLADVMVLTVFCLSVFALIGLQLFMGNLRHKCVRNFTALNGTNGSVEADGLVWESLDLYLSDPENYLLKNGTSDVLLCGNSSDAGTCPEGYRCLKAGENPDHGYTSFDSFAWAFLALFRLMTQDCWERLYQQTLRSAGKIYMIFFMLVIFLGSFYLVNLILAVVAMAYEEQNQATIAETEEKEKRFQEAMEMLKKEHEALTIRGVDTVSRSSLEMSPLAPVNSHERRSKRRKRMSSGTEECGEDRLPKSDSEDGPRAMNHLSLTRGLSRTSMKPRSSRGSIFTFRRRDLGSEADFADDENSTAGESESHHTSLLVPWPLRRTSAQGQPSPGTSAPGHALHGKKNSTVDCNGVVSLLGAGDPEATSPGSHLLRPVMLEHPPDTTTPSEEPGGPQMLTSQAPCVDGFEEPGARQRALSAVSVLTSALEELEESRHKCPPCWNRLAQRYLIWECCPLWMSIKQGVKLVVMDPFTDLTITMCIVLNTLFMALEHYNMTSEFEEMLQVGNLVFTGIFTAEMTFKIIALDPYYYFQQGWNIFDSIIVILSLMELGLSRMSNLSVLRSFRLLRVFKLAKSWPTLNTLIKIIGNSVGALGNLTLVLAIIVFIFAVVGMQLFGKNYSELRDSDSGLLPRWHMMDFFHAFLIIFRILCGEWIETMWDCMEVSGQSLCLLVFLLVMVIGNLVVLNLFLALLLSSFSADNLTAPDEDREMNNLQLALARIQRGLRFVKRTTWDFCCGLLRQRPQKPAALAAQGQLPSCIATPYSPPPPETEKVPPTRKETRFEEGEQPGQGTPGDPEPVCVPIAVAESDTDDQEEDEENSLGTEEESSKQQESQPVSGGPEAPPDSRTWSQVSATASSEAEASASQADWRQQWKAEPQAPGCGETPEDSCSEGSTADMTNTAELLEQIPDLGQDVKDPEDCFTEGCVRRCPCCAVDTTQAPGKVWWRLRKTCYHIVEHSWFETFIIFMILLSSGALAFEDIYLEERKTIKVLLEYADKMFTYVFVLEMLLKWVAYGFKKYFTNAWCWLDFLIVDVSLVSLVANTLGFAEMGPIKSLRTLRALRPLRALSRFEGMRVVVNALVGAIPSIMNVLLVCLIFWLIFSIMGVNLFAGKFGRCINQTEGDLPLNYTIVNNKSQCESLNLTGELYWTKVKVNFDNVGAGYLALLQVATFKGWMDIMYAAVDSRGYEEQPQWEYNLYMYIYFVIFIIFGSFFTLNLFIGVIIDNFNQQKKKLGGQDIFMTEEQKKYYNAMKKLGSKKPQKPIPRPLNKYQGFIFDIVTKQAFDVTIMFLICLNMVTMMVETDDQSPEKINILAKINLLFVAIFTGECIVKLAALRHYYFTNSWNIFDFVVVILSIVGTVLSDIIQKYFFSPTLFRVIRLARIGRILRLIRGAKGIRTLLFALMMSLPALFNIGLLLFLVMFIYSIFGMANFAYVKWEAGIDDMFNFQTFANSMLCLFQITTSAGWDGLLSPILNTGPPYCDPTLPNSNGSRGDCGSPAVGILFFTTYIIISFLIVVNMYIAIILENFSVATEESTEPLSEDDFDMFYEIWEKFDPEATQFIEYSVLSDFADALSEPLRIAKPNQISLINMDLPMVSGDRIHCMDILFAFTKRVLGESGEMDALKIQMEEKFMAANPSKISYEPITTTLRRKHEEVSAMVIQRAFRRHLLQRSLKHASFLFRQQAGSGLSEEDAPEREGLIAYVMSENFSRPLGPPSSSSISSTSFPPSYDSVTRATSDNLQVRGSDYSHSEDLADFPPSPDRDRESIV
Procedure: The compound was tested at a protein-free aqueous buffer. For determining steady state inhibition, sodium currents were elicited every 5 seconds using the following voltage protocol: cells were held at a potential of −90 mV and stepped to −20 mV for 60 ms. Effects were calculated by measuring inhibition of peak current during the test pulse to −20 mV. Rate-dependence of inhibition was assessed by stimulation at frequencies of 1 Hz and 4 Hz.

UniProt Q12809, sequence (Q12809 whole entry): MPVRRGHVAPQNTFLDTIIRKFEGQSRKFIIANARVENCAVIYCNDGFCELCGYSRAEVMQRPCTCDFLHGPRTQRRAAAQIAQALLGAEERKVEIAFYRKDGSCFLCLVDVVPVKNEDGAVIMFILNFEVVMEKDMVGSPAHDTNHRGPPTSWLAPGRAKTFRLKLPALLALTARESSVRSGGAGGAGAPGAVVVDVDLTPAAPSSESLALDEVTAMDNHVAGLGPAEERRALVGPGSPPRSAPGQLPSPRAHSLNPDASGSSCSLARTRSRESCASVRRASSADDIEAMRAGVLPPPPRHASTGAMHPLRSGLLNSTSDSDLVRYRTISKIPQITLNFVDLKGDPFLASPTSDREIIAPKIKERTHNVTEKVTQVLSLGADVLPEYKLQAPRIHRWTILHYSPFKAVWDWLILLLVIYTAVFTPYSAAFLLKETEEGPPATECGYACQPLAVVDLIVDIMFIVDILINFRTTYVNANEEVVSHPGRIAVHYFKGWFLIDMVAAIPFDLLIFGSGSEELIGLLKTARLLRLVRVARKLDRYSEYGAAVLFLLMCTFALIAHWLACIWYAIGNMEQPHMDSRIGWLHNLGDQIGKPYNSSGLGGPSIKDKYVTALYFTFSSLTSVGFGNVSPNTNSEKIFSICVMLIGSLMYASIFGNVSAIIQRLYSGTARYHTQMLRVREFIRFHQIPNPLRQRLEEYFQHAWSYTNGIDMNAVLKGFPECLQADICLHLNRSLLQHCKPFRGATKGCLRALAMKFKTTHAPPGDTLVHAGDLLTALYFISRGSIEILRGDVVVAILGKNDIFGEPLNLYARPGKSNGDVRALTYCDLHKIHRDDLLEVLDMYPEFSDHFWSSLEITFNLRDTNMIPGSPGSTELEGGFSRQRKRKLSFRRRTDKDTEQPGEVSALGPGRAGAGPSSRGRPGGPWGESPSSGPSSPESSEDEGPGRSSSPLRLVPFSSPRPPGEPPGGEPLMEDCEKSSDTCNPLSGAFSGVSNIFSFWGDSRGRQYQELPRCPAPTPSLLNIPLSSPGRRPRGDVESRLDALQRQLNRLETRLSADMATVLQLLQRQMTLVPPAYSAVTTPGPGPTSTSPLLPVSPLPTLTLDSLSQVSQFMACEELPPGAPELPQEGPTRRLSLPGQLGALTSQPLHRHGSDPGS

SMILES: CC(=O)N[C@@H]1C[C@H](NC(C)(C)C)CC[C@@H]1N1CC[C@H](Nc2ncnc3ccc(C(F)(F)F)cc23)C1=O [Example 1, N-((1R,2S,5R)-5-(tert-butylamino)-2-((S)-2-oxo-3-(6-(trifluoromethyl)quinazolin-4-ylamino)pyrrolidin-1-yl)cyclohexyl)acetamide]
- inhibition at 10000 nM (hERG): 12%
- inhibition at 30000 nM (hERG): 19%
- Mononuclear cell score (inhibition %) ([1]; 5 mg/kg): (75%)
- Mononuclear cell score ([1]; 5 mg/kg, mean histological score, scale 0 to 4): 0.5
- Eos score ([1]; 5 mg/kg, mean histological score, scale 0 to 4, eosinophils): 1.4
- PMN score ([1]; 5 mg/kg, mean histological score, scale 0 to 4, neutrophils): 0.1
- Total cell score ([1]; 5 mg/kg, sum of mean values for each cell type): 2.0
- Mononuclear cell score ([1]; 10 mg/kg, mean histological score, scale 0 to 4): 0.1
- inhibition at 30000 nM [2]: 29%
